# Data: the supplement of paper PMC8728848
# The other results are listed elsewhere or left out.
# B1: BC2L-D C-terminal domain (Burkholderia cenocepacia), Q39MQ9_BURS3 (protein)
# chain: LVIVDAVTLLSAYPEASRDPAAPTVIDGRHLYVVSPGDAAQLGHNDSRLFTGLSPGDQLHLRETALALRAEVSVLFIRFALKDAGIVAPIELEVRDAATAVPDADDLLHPSCRPLKDHYWRSDVLAAGATTCTADFAVCDRDGTVSGYFRWETSIEIAGSQPDTKQPGFKPSSDRNGNFSLPPNTAFKAIFYANAADRQDLKLFIDDAPEPAATFVGNSEDGVRLFTLNSKGGKIRIEASANGRQSATDARLAPLSAGDTVWLGWLGAEDGADADYNDGIVILQWPIT
# Columns and labels:
# Assay in all cases: glycan array binding signal (z-score within array); higher = stronger binding
# Details in all cases: glycan notation: IUPAC condensed, linker removed
# Gal6S(b1-4)GlcNAc = target: Gal6S(b1-4)GlcNAc
# Summary of the method: (§1)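 The binding signal is a Z-score computed within each array and averaged over linkers. Arrays of the same protein sequence at different concentrations or buffers were also averaged together. Data originate from 3228 arrays in the Consortium for Functional Glycomics database, kept only where the protein sequence was available.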
# Gal6S(b1-4)GlcNAc6S = target: Gal6S(b1-4)GlcNAc6S
# Summary of the method: as §1
# GalNAc(a1-3)Gal = target: GalNAc(a1-3)Gal
# Summary of the method: as §1
# GalNAc(a1-3)GalNAc = target: GalNAc(a1-3)GalNAc
# Summary of the method: as §1
# [1] = target: GalNAc(a1-3)GalNAc(b1-3)Gal(a1-4)Gal(b1-4)Glc
# Summary of the method: as §1
# [2] = target: GalNAc(a1-3)GalNAc(b1-3)Gal(a1-4)Gal(b1-4)GlcNAc
# Summary of the method: as §1
# GalNAc(b1-3)Gal = target: GalNAc(b1-3)Gal
# Summary of the method: as §1
# [3] = target: GalNAc(b1-3)Gal(a1-4)Gal(b1-4)GlcNAc
# Summary of the method: as §1
# [4] = target: GalNAc(b1-3)Gal(a1-4)Gal(b1-4)GlcNAc(b1-3)Gal(b1-4)Glc
# Summary of the method: as §1
# [5] = target: GalNAc(b1-3)Gal(a1-6)Gal(b1-4)Glc
# Summary of the method: as §1
# GalNAc(b1-3)GalNAc = target: GalNAc(b1-3)GalNAc
# Summary of the method: as §1
# GalNAc(b1-4)Gal(b1-4)Glc = target: GalNAc(b1-4)Gal(b1-4)Glc
# Summary of the method: as §1
# GalNAc(b1-4)GlcNAc = target: GalNAc(b1-4)GlcNAc
# Summary of the method: as §1
# [6] = target: GalNAc(b1-4)GlcNAc(b1-2)Man(a1-3)[GalNAc(b1-4)GlcNAc(b1-2)Man(a1-6)]Man(b1-4)GlcNAc(b1-4)GlcNAc
# Summary of the method: as §1
# GalNAc(b1-6)GalNAc = target: GalNAc(b1-6)GalNAc
# Summary of the method: as §1
# Glc(a1-4)Glc = target: Glc(a1-4)Glc
# Summary of the method: as §1
# [7] = target: Glc(a1-4)Glc(a1-4)Glc(a1-4)Glc
# Summary of the method: as §1
# Glc(a1-6)Glc(a1-6)Glc = target: Glc(a1-6)Glc(a1-6)Glc
# Summary of the method: as §1
# [8] = target: Glc(a1-6)Glc(a1-6)Glc(a1-6)Glc
# Summary of the method: as §1
# Glc(b1-4)Glc = target: Glc(b1-4)Glc
# Summary of the method: as §1
# Glc(b1-6)Glc = target: Glc(b1-6)Glc
# Summary of the method: as §1
# GlcA(b1-3)Gal = target: GlcA(b1-3)Gal
# Summary of the method: as §1
# GlcA(b1-3)GlcNAc = target: GlcA(b1-3)GlcNAc
# Summary of the method: as §1
# GlcA(b1-6)Gal = target: GlcA(b1-6)Gal
# Summary of the method: as §1
# [9] = target: GlcNAc(a1-3)Gal(b1-4)GlcNAc
# Summary of the method: as §1
# [10] = target: GlcNAc(a1-4)Gal(b1-3)GlcNAc
# Summary of the method: as §1
# [11] = target: GlcNAc(a1-4)Gal(b1-4)GalNAc
# Summary of the method: as §1
# [12] = target: GlcNAc(a1-4)Gal(b1-4)GlcNAc
# Summary of the method: as §1
# [13] = target: GlcNAc(a1-4)Gal(b1-4)GlcNAc(b1-3)Gal(b1-4)Glc
# Summary of the method: as §1
# [14] = target: GlcNAc(a1-4)Gal(b1-4)GlcNAc(b1-3)Gal(b1-4)GlcNAc
# Summary of the method: as §1
# [15] = target: GlcNAc(a1-4)Gal(b1-4)GlcNAc(b1-3)Gal(b1-4)GlcNAc(b1-3)Gal(b1-4)GlcNAc
# Summary of the method: as §1
# [16] = target: GlcNAc(a1-4)Gal(b1-4)GlcNAc(b1-3)Gal(b1-4)[Fuc(a1-3)]GlcNAc(b1-3)Gal(b1-4)[Fuc(a1-3)]GlcNAc
# Summary of the method: as §1
# [17] = target: GlcNAc(a1-6)Gal(b1-4)GlcNAc
# Summary of the method: as §1
# [18] = target: GlcNAc(b1-2)Gal(b1-3)GalNAc
# Summary of the method: as §1
# [19] = target: GlcNAc(b1-2)Man(a1-3)[GlcNAc(b1-2)Man(a1-6)]Man(b1-4)GlcNAc(b1-4)GlcNAc
# Summary of the method: as §1
# [20] = target: GlcNAc(b1-2)Man(a1-3)[GlcNAc(b1-2)Man(a1-6)]Man(b1-4)GlcNAc(b1-4)[Fuc(a1-6)]GlcNAc
# Summary of the method: as §1
# [21] = target: GlcNAc(b1-2)Man(a1-3)[GlcNAc(b1-4)][GlcNAc(b1-2)Man(a1-6)]Man(b1-4)GlcNAc(b1-4)GlcNAc
# Summary of the method: as §1
# [22] = target: GlcNAc(b1-2)[GlcNAc(b1-4)]Man(a1-3)[GlcNAc(b1-2)Man(a1-6)]Man(b1-4)GlcNAc(b1-4)GlcNAc
# Summary of the method: as §1
binder,measurement,setting,value
B1,glycan array binding signal (z-score),Gal6S(b1-4)GlcNAc,-0.244
same,glycan array binding signal (z-score),Gal6S(b1-4)GlcNAc6S,-0.249
same,glycan array binding signal (z-score),GalNAc(a1-3)Gal,-0.234
same,glycan array binding signal (z-score),GalNAc(a1-3)GalNAc,-0.239
same,glycan array binding signal (z-score),[1],-0.163
same,glycan array binding signal (z-score),[2],-0.165
same,glycan array binding signal (z-score),GalNAc(b1-3)Gal,-0.243
same,glycan array binding signal (z-score),[3],-0.237
same,glycan array binding signal (z-score),[4],-0.246
same,glycan array binding signal (z-score),[5],-0.169
same,glycan array binding signal (z-score),GalNAc(b1-3)GalNAc,-0.246
same,glycan array binding signal (z-score),GalNAc(b1-4)Gal(b1-4)Glc,-0.16
same,glycan array binding signal (z-score),GalNAc(b1-4)GlcNAc,-0.245
same,glycan array binding signal (z-score),[6],-0.228
same,glycan array binding signal (z-score),GalNAc(b1-6)GalNAc,-0.161
same,glycan array binding signal (z-score),Glc(a1-4)Glc,-0.242
same,glycan array binding signal (z-score),[7],-0.163
same,glycan array binding signal (z-score),Glc(a1-6)Glc(a1-6)Glc,-0.245
same,glycan array binding signal (z-score),[8],-0.167
same,glycan array binding signal (z-score),Glc(b1-4)Glc,-0.24
same,glycan array binding signal (z-score),Glc(b1-6)Glc,-0.237
same,glycan array binding signal (z-score),GlcA(b1-3)Gal,-0.244
same,glycan array binding signal (z-score),GlcA(b1-3)GlcNAc,-0.246
same,glycan array binding signal (z-score),GlcA(b1-6)Gal,-0.239
same,glycan array binding signal (z-score),[9],-0.24
same,glycan array binding signal (z-score),[10],-0.237
same,glycan array binding signal (z-score),[11],-0.245
same,glycan array binding signal (z-score),[12],-0.241
same,glycan array binding signal (z-score),[13],-0.244
same,glycan array binding signal (z-score),[14],-0.217
same,glycan array binding signal (z-score),[15],-0.235
same,glycan array binding signal (z-score),[16],-0.107
same,glycan array binding signal (z-score),[17],-0.242
same,glycan array binding signal (z-score),[18],-0.241
same,glycan array binding signal (z-score),[19],-0.239
same,glycan array binding signal (z-score),[20],-0.189
same,glycan array binding signal (z-score),[21],-0.161
same,glycan array binding signal (z-score),[22],-0.164
